# Assay results reported in PubChem BioAssay (NCATS).
# Where “and” joins values, the source holds several entries; their conditions need not be identical. Equal values may be shown once. The inconclusive results got no clear call from the source; some entries with a clear call stand among them for comparison. For some of these results: Where the call is inconclusive, the potency comes from a doubtful curve fit. The source holds several records for some structures; these can differ, active in one and inactive in another. Calls of active or inactive are those of the source. Unless noted, calls come from the whole dose curve; as a rule, active = well fitted curve in the direction sought with a large enough effect; inconclusive = small, poorly fitted or top-dose-only effect, or another doubt; inactive = no such curve, though single readings can be large; an effect the other way counts as inactive or inconclusive.
# Legend:
# [1] = P-glycoprotein substrates identified in KB-8-5-11 adenocarcinoma cell line, qHTS therapeutic library screen (AID 1346987); note: nearly all actives have a fitted effect of over 65% in size
# Procedure, shortened: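 Compounds are pinned in dose-response onto KB-8-5-11 cells (500 cells/well, colchicine-free medium) and left 72 h at 37 degree C. CellTiter-Glo luminescence then yields AC50 values.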
# [2] = molecular target: Cytochrome P450 2D6 (Homo sapiens) (UniProt P10635); assay: Cytochrome P450 family 2 subfamily D member 6 (CYP2D6) small molecule antagonists: luciferase biochemical (cell-free) qHTS assay (AID 1645840; active = well fitted curve in the direction sought with a large enough effect in the repeat runs; inconclusive = weak or mixed curves; inactive = no such curve, though single readings can be large; an effect the other way counts as inactive or inconclusive; note: nearly all actives have a fitted effect of over 55% in size)
# Sequence of UniProt P10635 (P10635 whole entry, looked up): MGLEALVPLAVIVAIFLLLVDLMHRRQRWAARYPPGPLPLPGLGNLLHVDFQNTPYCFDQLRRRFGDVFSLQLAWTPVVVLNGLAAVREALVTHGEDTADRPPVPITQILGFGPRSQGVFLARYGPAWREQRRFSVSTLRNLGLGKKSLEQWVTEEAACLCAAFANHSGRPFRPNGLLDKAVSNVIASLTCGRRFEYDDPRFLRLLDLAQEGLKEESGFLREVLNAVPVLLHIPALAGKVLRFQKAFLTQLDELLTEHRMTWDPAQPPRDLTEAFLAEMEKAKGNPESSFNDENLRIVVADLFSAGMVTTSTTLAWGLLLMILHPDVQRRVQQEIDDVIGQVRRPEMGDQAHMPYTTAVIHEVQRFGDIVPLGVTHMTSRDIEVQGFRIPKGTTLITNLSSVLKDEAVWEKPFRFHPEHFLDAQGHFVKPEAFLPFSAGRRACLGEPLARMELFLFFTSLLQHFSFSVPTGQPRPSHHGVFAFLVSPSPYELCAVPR
# Procedure, shortened: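 P450-Glo CYP2D6 system: proluciferin substrate converted by enzyme to luciferin, read by luminescence proportional to activity. Enzyme-substrate mix with compound 10 min at room temperature, then NADPH regeneration 1 h before detection reagent.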
# [3] = Primary qHTS for inhibitors of nuclear receptor binding SET domain protein 2 (NSD2) in an RCH-ACV wild type WT cells (2C) (AID 1645877); settings: activity change, negative = cell killing: at 44.9 µM (top of the series); note: nearly all actives have a fitted effect of over 70% in size; for activity change, negative = cell killing: % is set by controls: 0 for no effect and ±100 for the full control effect
# HEK293 = assay: Cytotoxic Profiling of Annotated Libraries Using Quantitative High-Throughput Screening (AID 1296008); settings: Five cell lines viability, CellTiter-Glo ATP luminescence, 48-72 h; max response: active compounds read low; note: nearly all actives have a fitted effect of over 60% in size; for max response: % is set by controls: 0 for no effect and ±100 for the full control effect
# Procedure, shortened: (§1)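 Cells exposed to compounds for 48 or 72 hr at 37 degrees Celsius. Viability read as ATP-coupled luminescence with CellTiter-Glo after 10 min at room temperature.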
# KB-3-1 = assay: as above; settings: Five cell lines viability, CellTiter-Glo ATP luminescence, 48-72 h; max response: active compounds read low
# Procedure, shortened: as §1
# NIH3T3 = assay: as above; settings: Five cell lines viability, CellTiter-Glo ATP luminescence, 48-72 h; max response: active compounds read low
# Procedure, shortened: as §1
# C33A = assay: Primary qHTS to identify gynecologic anti-cancer compounds using libraries of approved drugs and bioactive compounds (AID 1345084); settings: Gynecologic cancer cell panel viability, ATPlite luminescence, 48 h; series mostly up to 57.5 µM; note: nearly all actives have a fitted effect of over 55% in size; for activity change, negative = cytotoxicity: % is set by controls: 0 for no effect and ±100 for the full control effect
# Procedure, shortened: (§2)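 ATP-based viability (ATPlite), 1,000 cells/well, 16 h pre-incubation, 48 h compound at 37 C, 5% CO2, 15 min RT before read.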
# SKOV3 = assay: as above; settings: Gynecologic cancer cell panel viability, ATPlite luminescence, 48 h; series mostly up to 57.5 µM
# Procedure, shortened: as §2
# CAOV3 = assay: as above; settings: Gynecologic cancer cell panel viability, ATPlite luminescence, 48 h; series mostly up to 57.5 µM
# Procedure, shortened: as §2
# Hek293T = assay: as above; settings: Gynecologic cancer cell panel viability, ATPlite luminescence, 48 h, control line for the selectivity index; series mostly up to 57.5 µM
# Procedure, shortened: as §2
# [4] = test system: Zika virus NS2B-NS3 protease (unlinked complex); assay: Primary screen GU Rhodamine qHTS for Zika virus inhibitors: Unlinked NS2B-NS3 protease assay (AID 1347159); note: nearly all actives have a fitted effect of over 60% in size
# Procedure, shortened: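 In dose–response format, inhibition of unlinked protease (25 nM) was measured with 1.5 microM bis-peptide Rhodamine110 substrate. Aprotinin served as the intraplate control.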
# OV90 = assay: Primary qHTS to identify gynecologic anti-cancer compounds using libraries of approved drugs and bioactive compounds (AID 1345084); settings: Gynecologic cancer cell panel viability, ATPlite luminescence, 48 h; series mostly up to 57.5 µM; note: nearly all actives have a fitted effect of over 55% in size; for activity change, negative = cytotoxicity: % is set by controls: 0 for no effect and ±100 for the full control effect
# Procedure, shortened: as §2
# Tov112D = assay: as above; settings: Gynecologic cancer cell panel viability, ATPlite luminescence, 48 h; activity change, negative = cytotoxicity: at 57.5 µM (top of the series)
# Procedure, shortened: as §2
# CASKI = assay: as above; settings: Gynecologic cancer cell panel viability, ATPlite luminescence, 48 h; activity change, negative = cytotoxicity: at 57.5 µM (top of the series)
# Procedure, shortened: as §2
# JEG-3 = assay: as above; settings: Gynecologic cancer cell panel viability, ATPlite luminescence, 48 h; series mostly up to 57.5 µM
# Procedure, shortened: as §2
# PA-1 = assay: as above; settings: Gynecologic cancer cell panel viability, ATPlite luminescence, 48 h; series mostly up to 57.5 µM
# Procedure, shortened: as §2
# Tov-21-G = assay: as above; settings: Gynecologic cancer cell panel viability, ATPlite luminescence, 48 h; activity change, negative = cytotoxicity: at 57.5 µM (top of the series)
# Procedure, shortened: as §2
# Es-2 = assay: as above; settings: Gynecologic cancer cell panel viability, ATPlite luminescence, 48 h; series mostly up to 57.5 µM
# Procedure, shortened: as §2
# HeLa = assay: as above; settings: Gynecologic cancer cell panel viability, ATPlite luminescence, 48 h; series mostly up to 57.5 µM
# Procedure, shortened: as §2
# [5] = Primary qHTS for inhibitors of nuclear receptor binding SET domain protein 2 (NSD2) in an isogenic RCH-ACV NSD2 p.E1099K mutant (9B) (AID 1645876); note: nearly all actives have a fitted effect of over 70% in size
# Potency is the fitted concentration of half-maximal effect; tags give direction and shape of the fitted curve.
smiles,measurement,setting,value
COc1ccccc1C(=O)Nc1cccc(NC(=O)c2cccc(C)c2)c1,Potency,[1],"inconclusive: 8.2 µM [inhibitor, partial curve]"
same,Potency,[2],"inconclusive: 15.1 µM [inhibitor, partial curve, poor fit]"
same,Potency,[3],inactive
same,Potency,HEK293,"inconclusive: 25.9 µM [inhibitor, single point]"
same,max response,KB-3-1,inactive: 4.14%
same,Potency,NIH3T3,"inconclusive: 29.1 µM [inhibitor, single point]"
same,Potency,C33A,"inconclusive: 8910 nM [cytotoxic, single point]"
same,Potency,SKOV3,inactive
COc1cc(O)ccc1OCCNCC(O)COc1cccc2[nH]c3ccccc3c12 (stereo unspecified),Potency,[1],"inconclusive: 18.4 µM [inhibitor, single point]"
same,Potency,HEK293,"inconclusive: 18.4 µM [inhibitor, single point]"
same,Potency,KB-3-1,"inconclusive: 20.6 µM [inhibitor, single point]"
same,Potency,NIH3T3,"inconclusive: 23.1 µM [inhibitor, single point]"
same,Potency,CAOV3,"inconclusive: 39.8 µM [cytotoxic, partial curve, poor fit]"
same,Potency,Hek293T,inactive
same,Potency,SKOV3,"inconclusive: 31.6 µM [cytotoxic, single point]"
O=C(N[C@H]1CCC[C@H](CO)C1)C1CCN(c2nc3cc(Cl)c(-c4ccc(Cl)cc4)cc3o2)CC1,Potency,[1],"inconclusive: 29.1 µM [inhibitor, single point]"
same,Potency,[4],inactive
same,Potency,[2],"inconclusive: 9.52 µM [inhibitor, partial curve, poor fit]"
same,Potency,HEK293,"inconclusive: 29.1 µM [inhibitor, single point]"
same,max response,KB-3-1,inactive: -14.3%
same,max response,NIH3T3,inactive: 0.931%
same,Potency,CAOV3,inactive
same,Potency,Hek293T,inactive
same,Potency,OV90,inactive
same,Potency,SKOV3,"inconclusive: 39.8 µM [cytotoxic, single point]"
same,Potency,Tov112D,inactive
COc1cc2nc(-c3cc(F)ccc3O)nc(N[C@@H]3CNC[C@H]3C(C)(C)O)c2cc1OC,Potency,[1],"inconclusive: 18.4 µM [inhibitor, single point]"
same,Potency,[4],inactive
same,Potency,[3],active: 4.09 µM and active: 1.66 µM
same,Potency,HEK293,"inconclusive: 29.1 µM [inhibitor, single point]"
same,Potency,KB-3-1,"inconclusive: 20.6 µM [inhibitor, single point]"
same,Potency,NIH3T3,"inconclusive: 18.4 µM [inhibitor, single point]"
same,Potency,CAOV3,"inconclusive: 35.5 µM [cytotoxic, single point]"
Cc1cc(O)c(-c2ccc([C@@H](C)CN(C)C)cc2)c2c1[nH]c(=O)c1sccc12,Potency,[1],active: 0.082 µM
same,Potency,[3],active: 0.0742 µM
same,Potency,HEK293,active: 0.0259 µM
same,Potency,KB-3-1,active: 0.0461 µM
same,Potency,NIH3T3,active: 0.231 µM
same,Potency,C33A,"inconclusive: 355 nM [cytotoxic, full curve]"
same,Potency,CAOV3,"inconclusive: 0.141 µM [cytotoxic, full curve, poor fit]"
same,Potency,CASKI,active: 251 nM
same,Potency,Hek293T,active: 158 nM
same,Potency,JEG-3,"inconclusive: 14.1 µM [cytotoxic, partial curve, poor fit]"
same,Potency,OV90,"inconclusive: 251 nM [cytotoxic, full curve, poor fit]"
same,Potency,PA-1,active: 282 nM
same,Potency,SKOV3,"inconclusive: 0.282 µM [cytotoxic, full curve, poor fit]"
same,Potency,Tov-21-G,active: 0.316 µM
same,Potency,Tov112D,active: 0.282 µM
CN1CCN(C(=O)c2ccc(Nc3nccc(-c4cccs4)n3)cc2Cl)CC1,Potency,HEK293,"inconclusive: 25.9 µM [inhibitor, single point]"
same,Potency,KB-3-1,"inconclusive: 20.6 µM [inhibitor, single point]"
same,Potency,NIH3T3,"inconclusive: 29.1 µM [inhibitor, single point]"
same,Potency,JEG-3,"inconclusive: 15.8 µM [rising, partial curve, poor fit]"
same,Potency,PA-1,inactive
same,Potency,SKOV3,inactive
same,Potency,Tov-21-G,"inconclusive: 14.1 µM [cytotoxic, partial curve, poor fit]"
same,Potency,Tov112D,"inconclusive: 39.8 µM [cytotoxic, single point]"
CC[C@]1(O)CC2CN(CCc3c([nH]c4ccccc34)[C@@](C(=O)OC)(c3cc4c(cc3OC)N(C=O)[C@H]3[C@@](O)(C(=O)OC)[C@H](OC(C)=O)[C@]5(CC)C=CCN6CC[C@]43[C@@H]65)C2)C1 (stereo partly specified),Potency,[1],active: 2.27 µM
same,Potency,[4],"inconclusive: 70.8 µM [inhibitor, single point]"
same,Potency,[3],active: 0.0064 µM
same,Potency,HEK293,active: 0.0321 µM
same,Potency,KB-3-1,active: 0.0081 µM
same,Potency,NIH3T3,"inconclusive: 0.101 µM [inhibitor, full curve]"
same,Potency,C33A,"inconclusive: 178 nM [cytotoxic, full curve, poor fit]"
same,Potency,CASKI,active: 89.1 nM
same,Potency,Es-2,active: 447 nM
same,Potency,HeLa,active: 282 nM
same,Potency,Hek293T,"inconclusive: 251 nM [cytotoxic, full curve, poor fit]"
same,Potency,JEG-3,"inconclusive: 0.0891 µM [cytotoxic, full curve, poor fit]"
same,Potency,OV90,active: 1780 nM
same,Potency,SKOV3,"inconclusive: 0.224 µM [cytotoxic, full curve, poor fit]"
COc1ccc(C2(CNC(=O)[C@](C)(Cc3c[nH]c4ccccc34)NC(=O)Nc3ccc([N+](=O)[O-])cc3)CCCCC2)nc1,Potency,[1],"inconclusive: 29.1 µM [inhibitor, single point]"
same,Potency,[4],"inconclusive: 79.4 µM [inhibitor, partial curve, poor fit]"
same,Potency,[5],"inconclusive: 18.3 µM [inhibitor, single point]"
same,Potency,HEK293,"inconclusive: 20.6 µM [inhibitor, single point]"
same,Potency,KB-3-1,"inconclusive: 23.1 µM [inhibitor, single point]"
same,Potency,NIH3T3,"inconclusive: 29.1 µM [inhibitor, single point]"
same,Potency,Hek293T,inactive
same,Potency,SKOV3,"inconclusive: 2 µM [rising, partial curve, poor fit]"
CC(=O)N[C@H]1[C@H](O[C@H]2CC[C@@]3(C)C(CC[C@]4(C)C3CC=C3C5CC(C)(C)CC[C@]5(C(=O)O)C(O)C[C@]34C)C2(C)C)O[C@H](CO[C@@H]2O[C@H](C)[C@H](O)[C@H](O)[C@H]2O[C@@H]2OC[C@@H](O)[C@H](O)[C@H]2O)[C@@H](O)[C@@H]1O (stereo partly specified),Potency,[3],"inconclusive: 4.88 µM [inhibitor, single point]"
same,Potency,HEK293,"inconclusive: 6.93 µM [inhibitor, single point]"
same,max response,KB-3-1,inactive: 3.32%
same,Potency,NIH3T3,"inconclusive: 1.1 µM [inhibitor, partial curve, poor fit]"
same,Potency,CAOV3,"inconclusive: 7.08 µM [rising, partial curve, poor fit]"
same,"activity change, negative = cytotoxicity",JEG-3,inactive: -18.9% [at 11.6 µM]
same,"activity change, negative = cytotoxicity",OV90,inactive: 7.05% [at 11.6 µM]
same,"activity change, negative = cytotoxicity",Tov-21-G,inactive: -0.865% [at 11.6 µM]
O=[N+]([O-])c1ccc(-c2nc(-c3ccc(F)cc3)c(-c3ccncc3)[nH]2)cc1,Potency,[1],"inconclusive: 20.6 µM [inhibitor, single point] and inconclusive: 18.4 µM [inhibitor, single point]"
same,Potency,[4],active: 79.4 µM
same,Potency,[3],"inconclusive: 0.365 µM [inhibitor, full curve, poor fit]"
same,Potency,HEK293,"inconclusive: 29.1 µM [inhibitor, single point]"
same,Potency,KB-3-1,"inconclusive: 20.6 µM [inhibitor, single point]"
same,Potency,NIH3T3,"inconclusive: 23.1 µM [inhibitor, single point]"
same,Potency,SKOV3,"inconclusive: 8.91 µM [cytotoxic, partial curve]"
Cn1cc(-c2cnc3ccc4ccc(CS(=O)(=O)NCc5ccccn5)cc4c(=O)c3c2)cn1,Potency,[1],"inconclusive: 25.9 µM [inhibitor, single point]"
same,Potency,[2],active: 12 µM
same,Potency,[3],active: 23 µM
same,Potency,HEK293,"inconclusive: 29.1 µM [inhibitor, single point]"
same,Potency,KB-3-1,"inconclusive: 23.1 µM [inhibitor, single point]"
same,Potency,NIH3T3,"inconclusive: 18.4 µM [inhibitor, single point]"
same,Potency,OV90,inactive
same,Potency,SKOV3,"inconclusive: 39.8 µM [cytotoxic, single point]"
same,Potency,Tov112D,"inconclusive: 25.1 µM [cytotoxic, single point]"
COc1ccccc1OCCN1CC(COc2cccc3[nH]c4ccccc4c23)OCC1=O (stereo unspecified),Potency,[1],"inconclusive: 14.6 µM [inhibitor, partial curve]"
same,Potency,[2],"inconclusive: 6.01 µM [inhibitor, full curve]"
same,Potency,[5],"inconclusive: 29 µM [inhibitor, single point]"
same,Potency,[3],"inconclusive: 18.3 µM [inhibitor, partial curve]"
same,Potency,HEK293,"inconclusive: 20.6 µM [inhibitor, single point]"
same,max response,KB-3-1,inactive: -7.07%
same,Potency,NIH3T3,"inconclusive: 29.1 µM [inhibitor, single point]"
same,Potency,Hek293T,inactive
same,Potency,SKOV3,inactive
same,Potency,Tov-21-G,inactive
N#Cc1c[nH]c2c(C(=O)N3CCN(CCc4ccc(F)cc4)CC3)cccc12,Potency,[1],"inconclusive: 14.6 µM [inhibitor, single point]"
same,Potency,[2],active: 15.1 µM
same,Potency,[5],"inconclusive: 16.3 µM [inhibitor, partial curve, poor fit]"
same,Potency,[3],"inconclusive: 16.3 µM [inhibitor, partial curve, poor fit]"
same,Potency,HEK293,"inconclusive: 20.6 µM [inhibitor, single point]"
same,Potency,KB-3-1,"inconclusive: 16.4 µM [inhibitor, single point]"
same,Potency,NIH3T3,"inconclusive: 29.1 µM [inhibitor, single point]"
same,Potency,OV90,inactive
same,Potency,SKOV3,"inconclusive: 39.8 µM [cytotoxic, single point]"
